Results published in PubChem BioAssay AID1159614 (National Center for Advancing Translational Sciences (NCATS), 2016).
About 65 (0.1%) of roughly 45,000 compounds were called active. The call rests on the fitted dose curve; in most records, active means well fitted activation curve with a large enough effect; inconclusive means small, poorly fitted or top-dose-only effect; inactive means no such curve, though single readings can be large or run the other way. This is one part of the list.

molecular target: Galactocerebrosidase (Homo sapiens) (UniProt P54803); test: A Novel Cell-Based Assay to Identify Small Molecules for B -Galactocerebrosidase; settings: 145M-Twi-hGALC-G270D cells (Twitcher mouse brain line with human GALC G270D), HMU-beta-Gal fluorescence, 48 h; series mostly up to 57.5 µM; activation: at the top concentration; further: 0% is about no effect; nearly all actives have a fitted effect of over 65% in size
UniProt P54803, sequence (P54803 whole entry, looked up): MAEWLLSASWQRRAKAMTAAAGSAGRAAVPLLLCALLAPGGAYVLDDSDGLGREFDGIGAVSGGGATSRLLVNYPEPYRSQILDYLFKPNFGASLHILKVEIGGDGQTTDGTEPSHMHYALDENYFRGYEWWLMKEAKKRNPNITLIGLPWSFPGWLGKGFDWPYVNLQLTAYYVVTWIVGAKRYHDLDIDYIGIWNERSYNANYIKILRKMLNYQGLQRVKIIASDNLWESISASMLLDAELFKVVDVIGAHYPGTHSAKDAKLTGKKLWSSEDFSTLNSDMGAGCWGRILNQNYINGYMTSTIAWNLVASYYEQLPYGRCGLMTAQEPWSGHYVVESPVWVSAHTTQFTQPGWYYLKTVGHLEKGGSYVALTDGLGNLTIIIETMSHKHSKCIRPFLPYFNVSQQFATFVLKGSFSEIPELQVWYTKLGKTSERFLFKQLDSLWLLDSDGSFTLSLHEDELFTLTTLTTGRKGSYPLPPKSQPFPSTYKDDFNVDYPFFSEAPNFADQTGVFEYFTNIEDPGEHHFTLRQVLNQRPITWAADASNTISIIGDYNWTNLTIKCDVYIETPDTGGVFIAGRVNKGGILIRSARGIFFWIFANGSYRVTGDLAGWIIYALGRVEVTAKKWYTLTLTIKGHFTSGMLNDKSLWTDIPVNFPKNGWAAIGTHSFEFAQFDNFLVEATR
How it was run: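 Mutant human GALC (G270D), stably expressed in a Twitcher mouse brain cell line lacking endogenous GALC, is measured in live-treated cells via 6-hexadecanoylamino-4-methylumbelliferyl-β-galactoside hydrolysis (0.1 mM final, pH 5.2) with fluorescent detection.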

Compound	activation
COc1ccccc1NC(=O)c1nn(C)c2c1CS(=O)(=O)c1ccccc1-2	inactive: -10.4%
CCCCNC(=O)CC1Nc2cc(C)c(C)cc2NC1=O (centres undefined)	inactive: -12.2%
Cc1c(Cl)cccc1N1CCn2c1nc1c2c(=O)n(CC(=O)O)c(=O)n1C	inactive: -16.3%
COc1ccc(Cl)cc1NC(=O)Nc1c[nH]c(=O)[nH]c1=O	inactive: -12.3%
O=C(NCC(c1cccnc1)N1CCc2ccccc2C1)C(=O)Nc1ccccc1F (centres undefined)	inactive: -19.5%
CCN(C(=O)CCS(=O)(=O)c1ccc2c(c1)CCN2C(C)=O)c1cccc(C(F)(F)F)c1	inactive: -7.92%
CCCCc1ccc(Nc2cc(C)nc(-n3nc(C)cc3C)n2)cc1	inactive: -5.35%
COc1cc(OC)cc(C(=O)Nc2ccc3nc4c(c(Nc5ccc(OC)c(OC)c5)c3c2)CCCC4)c1	inactive: 2.39%
O=C(Nc1ccc(-c2nc3ccccc3o2)c(O)c1)c1cc(Cl)ccc1Cl	inactive: 1.44%
CCN1CCc2c(sc(NC(=O)c3ccc(S(=O)(=O)N(C)C4CCCCC4)cc3)c2C(N)=O)C1	inactive: -24%
O=C(/C=C\c1ccc2c(c1)OCO2)NC1CC(=O)N(c2ccccc2)C1 (centres undefined)	inactive: -11.7%
CSc1ccc(CNC(=O)Cn2c(-c3cccs3)cc3cc(F)ccc32)cc1	inactive: -9.42%
CC(=O)O[C@]1(C(C)=O)CC[C@H]2[C@@H]3C=C(Cl)C4=CC(=O)[C@@H]5C[C@@H]5[C@]4(C)[C@H]3CC[C@@]21C	inactive: -22.4%
CCCCNc1nc2c(-c3cccc(C)c3)nnn2c2ccccc12	inactive: -15.1%
COc1cc(C(=O)N2CCNC(=O)C2CC(=O)Nc2ccc(C)c(C)c2)cc(OC)c1OC (centres undefined)	inactive: -8.44%
Cc1ccccc1-c1nnc(SCC(=O)N(C)c2ccccc2)o1	inactive: -13.7%
Cc1ccc(CNC(=O)CCc2c(C)nc3c(-c4ccc(F)cc4)c(C)nn3c2C)cc1	inactive: -17.7%
COC(=O)c1ccc(NC(=O)Cn2ccn3nc(-c4ccc(OC)cc4)cc3c2=O)cc1	inactive: -14.1%
COc1ccc2c(c1)c1c(c(=O)n(-c3ccccc3C)c(=O)n1CC(N)=O)n2C	inactive: -6.78%
CCCN(CCC)C(=O)Cn1c(=O)n(CCCCCC(=O)Nc2ccccc2)c(=O)c2sccc21	inactive: -9.22%
Cc1cccc(OCC(=O)Nc2cccc(C(=O)OCc3cc(=O)n4nc(C(C)C)sc4n3)c2)c1	inactive: -15.4%
Cc1ccc(/C=C/c2onc(C)c2S(=O)(=O)N2CCC(C(=O)Nc3ccc(OC(F)(F)F)cc3)CC2)cc1	inactive: -19.9%
Cc1c(C(=O)OCc2ccccc2)[nH]c2c1C(=O)CC(c1ccc(N(C)C)cc1)C2 (centres undefined)	inactive: -22%
Cc1nn2c3c(cnc2c1-c1ccc(Cl)cc1)C(=O)CC(c1ccc(C(C)C)cc1)C3 (centres undefined)	inactive: -15.2%

Compound	activation
COc1ccc(NC(=O)CN2C(=O)C(C)(C)c3cc(S(=O)(=O)N4CCCCC4)ccc32)cc1Cl	inactive: -14.7%
CCc1sc(Nc2cccc(Cl)c2)nc1-c1cc2cccc(OC)c2oc1=O	inactive: -9.59%
COC(=O)C1=C(C)NC(=O)NC1c1cn(-c2ccccc2)nc1-c1ccc(OC)c(Br)c1 (centres undefined)	inactive: -27%
CCCn1c(COc2cccc(C)c2)nc2ccccc21	inactive: -13.1%
O=c1oc2cc(O)ccc2cc1-c1nc(-c2ccc(Cl)c(Cl)c2)cs1	inactive: -16.1%
COc1cccc(-n2c(SCC(=O)c3ccccc3)nc3c([nH]c4ccccc43)c2=O)c1	inactive: -18.3%
Cc1ccc(S(=O)(=O)C(CNC(=O)COc2ccccc2)c2cccs2)cc1 (centres undefined)	inactive: -7.04%
CCOc1ccc(NC(=O)CSc2oc(-c3cccs3)nc2S(=O)(=O)c2ccc(C)cc2)cc1	inactive: -22.3%
CCn1nc(C)c2c(-c3ccccc3)cc(=O)n(C(C)C(=O)Nc3cccc(F)c3)c21 (centres undefined)	inactive: -16.4%
CCc1ccc(NC(=O)C(=O)NCCc2csc(-c3cccc(F)c3)n2)cc1	inactive: -13%
Cc1ccc(C)c(Nc2nnc(-c3ccc(C)c(S(=O)(=O)N4CCN(C)CC4)c3)c3ccccc23)c1	inactive: -16.1%
Cc1ccc(C2=CC(c3ccccc3C)n3c(nc4ccccc43)N2)cc1 (centres undefined)	inactive: -9.58%
COc1ccccc1NC(=O)c1sc2nc3c(c(C(F)(F)F)c2c1N)CN(C(C)=O)CC3	inactive: -10.8%
O=C(COc1ccc(Cl)cc1)NCC(c1ccco1)S(=O)(=O)c1ccccc1 (centres undefined)	inactive: -6.37%
Cc1ccccc1CCNC(=O)c1ccc(NC(=O)N2CC(C)Sc3ccccc32)cc1 (centres undefined)	inactive: -0.744%
Cc1ccn2c(Nc3ccccc3C)c(-c3ccc(N4CCOCC4)cc3)nc2c1	inactive: -7.76%
Cc1cc(C)c(NC(=O)CSc2n[nH]c(-c3ccccc3Cl)n2)c(C)c1	inactive: -34.3%
Cc1nn(-c2ccc(N3CCOCC3)nn2)c(C)c1CCC(=O)NCc1ccccc1	inactive: -9.27%
CN(C)CCNC(=O)CN1N=C(c2ccccc2)CCC1=O	inactive: -18.5%
COc1ccc(N2CCN(C(=O)C3CCN(Cc4nc(-c5ccc(Cl)cc5)oc4C)CC3)CC2)cc1	inactive: -9.71%
C=C(C)Cn1c(=O)c2c(nc3n2CCN3c2cc(C)cc(C)c2)n(C)c1=O	inactive: -2.15%
O=C(O)c1ccccn1	inactive: -17.9%
COc1ccc(NC(=O)Cn2c(=O)cc(C)c3c(C)nn(C)c32)cc1	inactive: -14.8%
COc1ccc(CNc2nc(-c3ccc(OC)cc3)cc(C(F)(F)F)n2)cc1	inactive: 2.73%

Compound	activation
COc1ccc2c(c1)CC(C(=O)NCCN1CCN(c3ccccc3F)CC1)CO2 (centres undefined)	inactive: -21.1%
CCCC(=O)N1CCc2cc(OC)c(OC)cc2C1COc1ccc2c(C)cc(=O)oc2c1 (centres undefined)	inactive: -4.52%
Cc1ccc(Cl)cc1N1CCN(C(=O)c2cnn(C(C)(C)C)c2C2CCN(C(=O)OC(C)(C)C)CC2)CC1	inactive: -7.59%
CCOc1ccc(NC(=O)Cn2cc(C(=O)c3ccc(CC)cc3)c(=O)c3cc4c(cc32)OCO4)cc1	inactive: -11%
CCCSc1ncc(Cl)c(C(=O)Nc2ccc(S(=O)(=O)N3CCC(C)CC3)cc2)n1	inactive: -10.3%
COc1ccc(NC(=O)c2cnc(Nc3ccc(C)c(Cl)c3)c3ccccc23)c(OC)c1	inactive: -16%
Cn1nnnc1SCCCNCc1cccc(OCc2ccccc2F)c1	inactive: -15.5%
Cc1ccc(/C=C(\C#N)C(=O)Nc2ccc(Br)cc2)o1	inactive: -11%
O=C(Cn1cc(SCc2ccc(Br)cc2)c2ccccc21)N1CCCCC1	inactive: -3.46%
O=C(Nc1c(C(=O)c2ccc(Cl)cc2)oc2ccccc12)c1cc(=O)c2ccccc2o1	inactive: 0.749%
CCC(Sc1ncc(S(=O)(=O)c2ccc(C)cc2)c(=O)[nH]1)C(=O)Nc1cc(C)ccc1C (centres undefined)	inactive: 1.27%
CCc1ccc(NC(=O)CN2CCN(C3CCCCC3)C(=O)C2=O)cc1	inactive: -16.9%
CCN(C(=O)CSc1nc2ccccc2n1Cc1ccc(C(=O)OC)cc1)c1ccccc1	inactive: -17.3%
COc1ccc(NC(=O)c2ccco2)cc1NC(=O)c1ccc(C)c(C)c1	inactive: -1.85%
CCc1nc2ccc(C(=O)NCc3ccc(N(C)C)cc3)cc2nc1CC	inactive: -16.8%
Cc1ccc2oc(=O)c(S(=O)(=O)c3ccc(F)cc3)cc2c1	inactive: -17.6%
COc1ccc(CCN2C(=O)NC(NC(=O)c3ccccc3OC)(C(F)(F)F)C2=O)cc1OC (centres undefined)	inactive: -9.67%
Nc1nnc(SCC(=O)Nc2cccc(F)c2)s1	inactive: -9.44%
O=C(O)COCCN1CCN(C(c2ccccc2)c2ccc(Cl)cc2)CC1 (centres undefined)	inactive: -10.1%
CCOc1ccc(NC(=O)CCc2nc3cccnc3n2Cc2ccc(OC)cc2)cc1	inactive: -6.38%
Cc1ccc(NC(=O)C2CCCN(c3cnccn3)C2)cc1Cl (centres undefined)	inactive: -8.83%
Cc1ccc(CS(=O)Cc2ccc(C(=O)NCc3ccccc3Cl)o2)cc1 (centres undefined)	inactive: -12.7%
Cc1ccc(S(=O)(=O)c2nnn3c2nc(NCc2ccccc2)c2sccc23)cc1	inactive: -21.3%
CC(C)c1ccc(NC(=O)C2CCN(S(=O)(=O)c3ccc(Br)s3)CC2)cc1	inactive: 2.01%

Compound	activation
Clc1ccc(Nc2nc(-c3ccccc3)c3ccccc3n2)c(Cl)c1	inactive: -9.61%
O=S(=O)(c1cc(Br)c(Br)s1)N1CCN(c2ccccc2)CC1	inactive: -15.2%
COc1ccccc1C(=O)Nc1cccc(OCc2cc(=O)n3c(C)csc3n2)c1	inactive: -8.07%
CCOc1ccccc1NC(=O)C(=O)c1cc(C)n(-c2cccc(C)c2C)c1C	inactive: 14%
COc1ccccc1NC(=O)C1=C(C)Nc2nc(SCc3ccccc3F)nn2C1c1ccncc1 (centres undefined)	inactive: 8.65%
CC(C)Cc1nn2c(=O)cc(COC(=O)c3ccccc3NC(=O)c3cccs3)nc2s1	inactive: -12.4%
CN1C[C@H](C(=O)N[C@]2(C)O[C@@]3(O)[C@@H]4CCCN4C(=O)[C@H](Cc4ccccc4)N3C2=O)C[C@@H]2c3cccc4[nH]cc(c34)C[C@H]21	inactive: -13.9%
COc1ccc2c(c1)CCc1c(C(=O)Nc3cnn(Cc4ccc(Cl)cc4Cl)c3)noc1-2	inactive: -9.23%
COc1cccc(NC(=O)CCSc2nc(-c3ccco3)cc(C(F)(F)F)n2)c1	inactive: -13.6%
COc1ccc(-c2noc(N3CCN(c4ccc(Cl)cc4)CC3)n2)cc1OC	inactive: -14.5%
CCc1nn2c(=O)cc(COC(=O)c3cccc(NC(=O)COc4ccccc4)c3)nc2s1	inactive: -12.5%
CCOc1ccc(CCNC(=O)c2cc3cc4cc(OC)ccc4nc3s2)cc1OCC	inactive: -9.78%
COc1ccc(CNC(=O)C2CCN(S(=O)(=O)c3ccc4nc5c(c(C(=O)O)c4c3)CCCC5)CC2)cc1	inactive: -18.1%
Cc1cc(C)cc(NC(=O)Cn2cc(C(=O)c3ccncc3)c(=O)c3cc(C)c(C)cc32)c1	inactive: -7.73%
Cc1cccc(NC(=O)C2CCN(S(=O)(=O)c3ccc4[nH]c5c(c4c3)CCCCC5)CC2)c1	inactive: -17.9%
CCc1cccc(C)c1NC(=O)C1CCN(c2nnc(C)c3c(C)n(-c4ccccc4)nc23)CC1	inactive: -13.9%
CN(c1ccccc1)S(=O)(=O)c1nnc(NC(=O)c2ccco2)s1	inactive: -19.6%
Cc1ccccc1NC(=O)c1cc2sccc2n1Cc1ccc(F)cc1	inactive: -17.5%
CCCCCn1c(=O)[nH]c2cc(C(=O)N3CCN(c4cccc(Cl)c4)CC3)ccc2c1=O	inactive: -7.35%
COc1ccc(OC)c(CNC(=O)c2cc(S(=O)(=O)N3CCC(C)CC3)cn2C)c1	inactive: 5.48%
CCOC(=O)CCn1c(=O)c2cccn2c2cccnc21	inactive: -10.7%
COc1ccc(NC(=O)CCc2nc3c(C)nn(-c4ccc(C)cc4)c3n(C)c2=O)c(OC)c1	inactive: -12.7%
